Like-named read-outs stand apart in the source and are kept apart here.
System: C. difficile R20291

C[C@@H](O[C@H]1OCCN(Cc2n[nH]c(=O)[nH]2)[C@H]1c1ccc(F)cc1)c1cc(C(F)(F)F)cc(C(F)(F)F)c1 [aprepitant]
colonization of R20291 (CFUs) (in vivo): reduced colonization
histopathological scores in colonic tissues (in vivo): reduced histopathological scores

NCCCC[C@H](NC(=O)[C@@H](Cc1cc(Br)c(O)c(Br)c1)NC(=O)N1CCC(N2Cc3ccccc3NC2=O)CC1)C(=O)N1CCN(c2ccncc2)CC1 [olcegepant]
colonization of R20291 (CFUs) (in vivo): reduced colonization
histopathological scores in colonic tissues (in vivo): reduced histopathological scores

fremanezumab
histopathological scores in colonic tissues (CDI with R20291, mice): reduced histopathological scores
colonization of R20291 (CFUs) (CDI with R20291, mice, cecal content): reduced colonization

— patent US20250064836A1 (priority 2023, published 2025)
